{"source": "the supplement of paper PMC8728848", "test_in_all_cases": "glycan array binding signal (z-score within array); higher = stronger binding", "details_in_all_cases": "glycan notation: IUPAC condensed, linker removed", "key": {"[1]": {"target": "GalNAc(b1-4)GlcNAc(b1-2)Man(a1-3)[GalNAc(b1-4)GlcNAc(b1-2)Man(a1-6)]Man(b1-4)GlcNAc(b1-4)GlcNAc", "procedure,_shortened": "(§1)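 Arrays were curated from the Consortium for Functional Glycomics database, 3228 in total, and kept only where the protein sequence was available. Binding is expressed as a within-array Z-score. This score was averaged across arrays of the same protein sequence at different concentrations or buffers and across linkers, and negative values can be read as non-binding.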"}, "[2]": {"target": "GalNAc(b1-4)GlcNAc(b1-3)GalNAc(b1-4)GlcNAc", "procedure,_shortened": "as §1"}, "GalNAc(b1-4)GlcNAc6S": {"target": "GalNAc(b1-4)GlcNAc6S", "procedure,_shortened": "as §1"}, "GalNAc(b1-6)GalNAc": {"target": "GalNAc(b1-6)GalNAc", "procedure,_shortened": "as §1"}, "GalNAc3S(b1-4)GlcNAc": {"target": "GalNAc3S(b1-4)GlcNAc", "procedure,_shortened": "as §1"}, "GalNAc3S(b1-4)GlcNAc3S": {"target": "GalNAc3S(b1-4)GlcNAc3S", "procedure,_shortened": "as §1"}, "[3]": {"target": "GalNAc3S(b1-4)[Fuc(a1-3)]GlcNAc", "procedure,_shortened": "as §1"}, "GalNAc4S6S(b1-4)GlcNAc": {"target": "GalNAc4S6S(b1-4)GlcNAc", "procedure,_shortened": "as §1"}, "GalNAc6S(b1-4)GlcNAc": {"target": "GalNAc6S(b1-4)GlcNAc", "procedure,_shortened": "as §1"}, "Glc(a1-4)Glc": {"target": "Glc(a1-4)Glc", "procedure,_shortened": "as §1"}, "[4]": {"target": "Glc(a1-4)Glc(a1-4)Glc(a1-4)Glc", "procedure,_shortened": "as §1"}, "Glc(a1-6)Glc(a1-6)Glc": {"target": "Glc(a1-6)Glc(a1-6)Glc", "procedure,_shortened": "as §1"}, "[5]": {"target": "Glc(a1-6)Glc(a1-6)Glc(a1-6)Glc", "procedure,_shortened": "as §1"}, "Glc(b1-4)Glc": {"target": "Glc(b1-4)Glc", "procedure,_shortened": "as §1"}, "Glc(b1-6)Glc": {"target": "Glc(b1-6)Glc", "procedure,_shortened": "as §1"}, "GlcA(b1-3)Gal": {"target": "GlcA(b1-3)Gal", "procedure,_shortened": "as §1"}, "GlcA(b1-3)GlcNAc": {"target": "GlcA(b1-3)GlcNAc", "procedure,_shortened": "as §1"}, "GlcA(b1-6)Gal": {"target": "GlcA(b1-6)Gal", "procedure,_shortened": "as §1"}, "[6]": {"target": "GlcA3S(b1-3)Gal(b1-4)GlcNAc(b1-2)Man", "procedure,_shortened": "as §1"}, "[7]": {"target": "GlcA3S(b1-3)Gal(b1-4)GlcNAc(b1-3)Gal(b1-4)Glc", "procedure,_shortened": "as §1"}, "[8]": {"target": "GlcNAc(a1-3)Gal(b1-4)GlcNAc", "procedure,_shortened": "as §1"}, "[9]": {"target": "GlcNAc(a1-4)Gal(b1-3)GlcNAc", "procedure,_shortened": "as §1"}, "[10]": {"target": "GlcNAc(a1-4)Gal(b1-4)GalNAc", "procedure,_shortened": "as §1"}, "[11]": {"target": "GlcNAc(a1-4)Gal(b1-4)GlcNAc", "procedure,_shortened": "as §1"}, "[12]": {"target": "GlcNAc(a1-4)Gal(b1-4)GlcNAc(b1-3)Gal(b1-4)Glc", "procedure,_shortened": "as §1"}, "[13]": {"target": "GlcNAc(a1-4)Gal(b1-4)GlcNAc(b1-3)Gal(b1-4)GlcNAc", "procedure,_shortened": "as §1"}, "[14]": {"target": "GlcNAc(a1-4)Gal(b1-4)GlcNAc(b1-3)Gal(b1-4)GlcNAc(b1-3)Gal(b1-4)GlcNAc", "procedure,_shortened": "as §1"}, "[15]": {"target": "GlcNAc(a1-4)Gal(b1-4)GlcNAc(b1-3)Gal(b1-4)[Fuc(a1-3)]GlcNAc(b1-3)Gal(b1-4)[Fuc(a1-3)]GlcNAc", "procedure,_shortened": "as §1"}, "[16]": {"target": "GlcNAc(a1-6)Gal(b1-4)GlcNAc", "procedure,_shortened": "as §1"}, "[17]": {"target": "GlcNAc(b1-2)Gal(b1-3)GalNAc", "procedure,_shortened": "as §1"}, "[18]": {"target": "GlcNAc(b1-2)Man(a1-3)[GlcNAc(b1-2)Man(a1-6)]Man(b1-4)GlcNAc(b1-4)GlcNAc", "procedure,_shortened": "as §1"}, "[19]": {"target": "GlcNAc(b1-2)Man(a1-3)[GlcNAc(b1-2)Man(a1-6)]Man(b1-4)GlcNAc(b1-4)[Fuc(a1-6)]GlcNAc", "procedure,_shortened": "as §1"}, "[20]": {"target": "GlcNAc(b1-2)Man(a1-3)[GlcNAc(b1-4)][GlcNAc(b1-2)Man(a1-6)]Man(b1-4)GlcNAc(b1-4)GlcNAc", "procedure,_shortened": "as §1"}, "[21]": {"target": "GlcNAc(b1-2)Man(a1-3)[GlcNAc(b1-4)][GlcNAc(b1-2)Man(a1-6)]Man(b1-4)GlcNAc(b1-4)[Fuc(a1-6)]GlcNAc", "procedure,_shortened": "as §1"}, "[22]": {"target": "GlcNAc(b1-2)[GlcNAc(b1-4)]Man(a1-3)[GlcNAc(b1-2)Man(a1-6)]Man(b1-4)GlcNAc(b1-4)GlcNAc", "procedure,_shortened": "as §1"}, "[23]": {"target": "GlcNAc(b1-2)[GlcNAc(b1-4)]Man(a1-3)[GlcNAc(b1-4)][GlcNAc(b1-2)Man(a1-6)]Man(b1-4)GlcNAc(b1-4)GlcNAc", "procedure,_shortened": "as §1"}, "[24]": {"target": "GlcNAc(b1-2)[GlcNAc(b1-4)]Man(a1-3)[GlcNAc(b1-4)][GlcNAc(b1-2)[GlcNAc(b1-6)]Man(a1-6)]Man(b1-4)GlcNAc(b1-4)GlcNAc", "procedure,_shortened": "as §1"}, "[25]": {"target": "GlcNAc(b1-2)[GlcNAc(b1-4)]Man(a1-3)[GlcNAc(b1-4)][GlcNAc(b1-2)[GlcNAc(b1-6)]Man(a1-6)]Man(b1-4)GlcNAc(b1-4)[Fuc(a1-6)]GlcNAc", "procedure,_shortened": "as §1"}, "[26]": {"target": "GlcNAc(b1-2)[GlcNAc(b1-6)]Man(a1-6)[GlcNAc(b1-2)Man(a1-3)]Man(b1-4)GlcNAc(b1-4)GlcNAc", "procedure,_shortened": "as §1"}, "[27]": {"target": "GlcNAc(b1-2)[GlcNAc(b1-6)]Man(a1-6)[GlcNAc(b1-2)Man(a1-3)]Man(b1-4)GlcNAc(b1-4)[Fuc(a1-6)]GlcNAc", "procedure,_shortened": "as §1"}, "[28]": {"target": "GlcNAc(b1-2)[GlcNAc(b1-6)]Man(a1-6)[GlcNAc(b1-4)][GlcNAc(b1-2)Man(a1-3)]Man(b1-4)GlcNAc(b1-4)GlcNAc", "procedure,_shortened": "as §1"}, "GlcNAc(b1-3)Fuc": {"target": "GlcNAc(b1-3)Fuc", "procedure,_shortened": "as §1"}, "GlcNAc(b1-3)Gal": {"target": "GlcNAc(b1-3)Gal", "procedure,_shortened": "as §1"}, "[29]": {"target": "GlcNAc(b1-3)Gal(b1-3)GalNAc", "procedure,_shortened": "as §1"}, "GlcNAc(b1-3)Gal(b1-4)Glc": {"target": "GlcNAc(b1-3)Gal(b1-4)Glc", "procedure,_shortened": "as §1"}}, "note": "The list shows a part of the results.", "data": [{"binder": "FliD (Clostridium difficile) (protein) MSSISPVRVTGLSGNFDMEGIIEASMIRDKEKVNKAKQDQQIVKWKQEIYRDIIKESKNLYDKYLNGDSPNSITNKKAYSATRITSSDESIIVAKGSAGAEKINYQFAVSQMAEPAKVTIKLNSSDPIVQQFPPNASGASSLNIGGVNIPISEQDTTSTIVSKINSLCADNDIRASYSEMTGELIISRKQTGSSSDIDLKVIGNDSLAGQIASDNGITFTTDASGTKSAVVYGKNLEADVTDDQGRVTHISKEQNSFKIDNIDYNVNSKGSAKLVSVTDTEEATKNMKAFVDDYNALMDKVYGLVTTKKSKDYPPLTDEQKDDMTTEEIEKWEKKAKEGILRNDDELRAFVEDIQSMFFGDADTIIALRKLGISEHENYNKKGQISFNADTFSKALIDDSDKVYKALAGYSSNYDDKGMFEKLKKIVFEYSGSSASKLTKKAGMENSSSASQNVYSKQIAEQERNISRLVEKMNDKEKRLYAKYSALESLLNKYSSQMNYFSQAQGN", "values": [{"measurement": "glycan array binding signal (z-score)", "setting": "[1]", "value": -0.139}, {"measurement": "glycan array binding signal (z-score)", "setting": "[2]", "value": -0.246}, {"measurement": "glycan array binding signal (z-score)", "setting": "GalNAc(b1-4)GlcNAc6S", "value": -0.165}, {"measurement": "glycan array binding signal (z-score)", "setting": "GalNAc(b1-6)GalNAc", "value": -0.271}, {"measurement": "glycan array binding signal (z-score)", "setting": "GalNAc3S(b1-4)GlcNAc", "value": -0.238}, {"measurement": "glycan array binding signal (z-score)", "setting": "GalNAc3S(b1-4)GlcNAc3S", "value": -0.219}, {"measurement": "glycan array binding signal (z-score)", "setting": "[3]", "value": -0.182}, {"measurement": "glycan array binding signal (z-score)", "setting": "GalNAc4S6S(b1-4)GlcNAc", "value": -0.169}, {"measurement": "glycan array binding signal (z-score)", "setting": "GalNAc6S(b1-4)GlcNAc", "value": -0.294}, {"measurement": "glycan array binding signal (z-score)", "setting": "Glc(a1-4)Glc", "value": -0.054}, {"measurement": "glycan array binding signal (z-score)", "setting": "[4]", "value": -0.183}, {"measurement": "glycan array binding signal (z-score)", "setting": "Glc(a1-6)Glc(a1-6)Glc", "value": -0.15}, {"measurement": "glycan array binding signal (z-score)", "setting": "[5]", "value": -0.187}, {"measurement": "glycan array binding signal (z-score)", "setting": "Glc(b1-4)Glc", "value": -0.197}, {"measurement": "glycan array binding signal (z-score)", "setting": "Glc(b1-6)Glc", "value": -0.096}, {"measurement": "glycan array binding signal (z-score)", "setting": "GlcA(b1-3)Gal", "value": -0.195}, {"measurement": "glycan array binding signal (z-score)", "setting": "GlcA(b1-3)GlcNAc", "value": -0.112}, {"measurement": "glycan array binding signal (z-score)", "setting": "GlcA(b1-6)Gal", "value": 0.617}, {"measurement": "glycan array binding signal (z-score)", "setting": "[6]", "value": -0.218}, {"measurement": "glycan array binding signal (z-score)", "setting": "[7]", "value": -0.273}, {"measurement": "glycan array binding signal (z-score)", "setting": "[8]", "value": -0.183}, {"measurement": "glycan array binding signal (z-score)", "setting": "[9]", "value": -0.073}, {"measurement": "glycan array binding signal (z-score)", "setting": "[10]", "value": -0.259}, {"measurement": "glycan array binding signal (z-score)", "setting": "[11]", "value": -0.21}, {"measurement": "glycan array binding signal (z-score)", "setting": "[12]", "value": -0.163}, {"measurement": "glycan array binding signal (z-score)", "setting": "[13]", "value": -0.211}, {"measurement": "glycan array binding signal (z-score)", "setting": "[14]", "value": -0.23}, {"measurement": "glycan array binding signal (z-score)", "setting": "[15]", "value": -0.204}, {"measurement": "glycan array binding signal (z-score)", "setting": "[16]", "value": -0.229}, {"measurement": "glycan array binding signal (z-score)", "setting": "[17]", "value": -0.207}, {"measurement": "glycan array binding signal (z-score)", "setting": "[18]", "value": -0.211}, {"measurement": "glycan array binding signal (z-score)", "setting": "[19]", "value": -0.212}, {"measurement": "glycan array binding signal (z-score)", "setting": "[20]", "value": -0.255}, {"measurement": "glycan array binding signal (z-score)", "setting": "[21]", "value": -0.174}, {"measurement": "glycan array binding signal (z-score)", "setting": "[22]", "value": -0.263}, {"measurement": "glycan array binding signal (z-score)", "setting": "[23]", "value": -0.264}, {"measurement": "glycan array binding signal (z-score)", "setting": "[24]", "value": -0.264}, {"measurement": "glycan array binding signal (z-score)", "setting": "[25]", "value": -0.261}, {"measurement": "glycan array binding signal (z-score)", "setting": "[26]", "value": -0.225}, {"measurement": "glycan array binding signal (z-score)", "setting": "[27]", "value": -0.109}, {"measurement": "glycan array binding signal (z-score)", "setting": "[28]", "value": -0.219}, {"measurement": "glycan array binding signal (z-score)", "setting": "GlcNAc(b1-3)Fuc", "value": -0.089}, {"measurement": "glycan array binding signal (z-score)", "setting": "GlcNAc(b1-3)Gal", "value": -0.157}, {"measurement": "glycan array binding signal (z-score)", "setting": "[29]", "value": -0.135}, {"measurement": "glycan array binding signal (z-score)", "setting": "GlcNAc(b1-3)Gal(b1-4)Glc", "value": -0.194}]}]}
